In PubChem BioAssay AID1963576 (National Center for Advancing Translational Sciences (NCATS), 2024):
In all, about 46,000 compounds went through this assay and about 60 (0.1%) were called active. Another 3% or so got no clear call; they are omitted. Calls follow the shape of the dose curve; as a rule, active = well fitted inhibition curve with a large enough effect; inconclusive = small, poorly fitted or top-dose-only effect; inactive = no such curve, though single readings can be large or run the other way. The list shows a part of the results.

Assay: Primary qHTS assay for Inhibitors of ovarian cancer metastasis using an organotypic tumor microenvironment (TME) model. Also: nearly all actives have a fitted effect of over 65% in size.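 As to activity change, negative = inhibition: plate controls were DMSO wells for no effect and tomatine positive control wells for full effect.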
Conditions: SKOV3ip1-GFP adhesion/invasion on 3D omental model, fluorescence; series mostly up to 45.8 µM; activity change, negative = inhibition: at the top concentration
Outline: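 Adhesion/invasion was scored as fixed GFP-labeled SKOV3ip1 cell counts (488/509 nm), normalized to DMSO and tomatine controls. Cancer cells in serum-free medium, with four compound doses (0.36-46 umol/L), sat 2 hr at RT then 16 hr at 37 C on a 48 hr fibroblast/mesothelial/ECM culture.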

Activity change, negative = inhibition, inactive:
COc1cccc(-n2c(=O)c3c4c(sc3n(Cc3ccccc3C#N)c2=O)CCCC4)c1 3.55%
COc1ccc(-n2nc(C(=O)N3CCN(c4cccc(C)c4)C(C)C3)c3c4ccccc4n(C)c3c2=O)cc1Cl (configuration not stated) -12.1%
CCCCn1c(C2CC(=O)N(c3ccc(OCC)cc3)C2)nc2ccccc21 (configuration not stated) 1.23%
CCOc1ccc(OCC)c(NS(=O)(=O)c2ccc3c(c2)CCCN3C(C)=O)c1 4.87%
CCc1nnc(NC(=O)c2nc(SCc3ccc(F)cc3)ncc2Cl)s1 -3.66%
O=C(Cn1cc(SCc2ccc(F)cc2)c2ccccc21)N1CCCC1 -1.91%
COc1ccc(S(=O)(=O)N2CCC(c3nnnn3-c3ccccc3)CC2)cc1OC -2.97%
CCC(C(=O)NC1CCCCC1)n1nc(C)c2sc3ccccc3c2c1=O (configuration not stated) 6.4%
Cc1ccc(Cl)cc1N1CCN(C(=O)c2cnc3c(-c4ccc(F)cc4)c(C)nn3c2C)CC1 4.85%
O=C(Nc1ccccc1C(F)(F)F)C1CCN(c2nnc(-n3cccc3)s2)CC1 -8.48%
Cc1cccc(S(=O)(=O)c2cn(Cc3ccc(F)cc3)c3cc(N4CCOCC4)c(F)cc3c2=O)c1 -1.85%
COCC(C)NC(=O)C1=CC(c2ccc3c(c2)OCO3)=NS(=O)(=O)N1C (configuration not stated) -2.02%
CCOCCn1c(=NC(=O)c2ccc3c(c2)OCCO3)sc2cc(OCC)ccc21 -8.3%
Cc1cc(C)c(NC(=O)c2ccc3nc(C(C)C)oc3c2)c(C)c1 -18.9%
O=C(CSc1nc2c(c(=O)[nH]1)CCC2)Nc1cc(C(F)(F)F)ccc1Cl 1.56%
Cc1cccc(-c2nc(S(=O)(=O)c3ccccc3)c(N3CCN(c4ccccc4)CC3)o2)c1 -5.56%
COc1ccc(NCc2cccn2-c2nnc(N3CCC(C)CC3)s2)c(OC)c1 -7.78%
CCOC(=O)c1cc(S(=O)(=O)Nc2cc(C)c(Cl)cc2OC)[nH]n1 7.81%
COc1c(Cl)cc(Cl)cc1C(=O)Nc1cccc2cccnc12 3.64%
CCc1cccc(NC(=O)CSc2nccn2C)c1 4.08%
Cc1ccc(C(=O)c2cn(Cc3ccccc3)c3cc4c(cc3c2=O)OCCO4)cc1 9.09%

outcome, inactive:
O=C(Cn1nc2c(cc1=O)CCCC2)NCc1ccccc1
O=C(OCC1CCCO1)c1ccc2c(c1)N(Cc1c(F)cccc1Cl)C(=O)c1ccccc1S2(=O)=O (configuration not stated)
CCN(CC)S(=O)(=O)c1ccc2c(c1)c(=O)c(C(=O)N1CCN(c3cc(C)ccc3C)CC1)cn2C
CCc1ccc(NC(=O)C(=O)NCCc2sc(-c3ccc(C)cc3)nc2C)cc1
CSc1ccc(-c2nc3cc(C)ccn3c2Nc2ccc(C)cc2)cc1
Cn1ccc2c(OCC(=O)NCc3ccc(F)cc3)cccc2c1=O
